{
  "source": "the supplement of paper PMC4604168 (melanoma cell lines)",
  "note": "The list shows a part of the results. Most values come without repeats; read them as rough.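 Note: cell number obtained by counting DAPI-stained nuclei in high-throughput microscope images with image analysis software, screen run in 1,536-well plates.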",
  "data": [
    {"test_system": "COLO792", "assay": "cell count relative to DMSO control; higher = more viable cells", "settings": "library dose: low library concentration; 72 h", "units": {"cell count": "%"}, "values": [
      {"smiles": "NC1(c2ccc(-c3nc4ccn5c(=O)[nH]nc5c4cc3-c3ccccc3)cc2)CCC1", "note": "+ C[As](C)SC[C@H](NC(=O)CC[C@H](N)C(=O)O)C(=O)NCC(=O)O [Darinaparsin] (first compound 0.4 µM, partner dose 0.4 µM)", "cell count": 61.3},
      {"smiles": "COc1ccc(-c2ccc3c(N4CCOCC4)nc(N4C[C@@H](C)O[C@@H](C)C4)nc3n2)cc1CO", "note": "+ O=C(Oc1ccc([N+](=O)[O-])cc1)N1CCC(C(O)(c2ccc3c(c2)OCO3)c2ccc3c(c2)OCO3)CC1 [JZL184] (first compound 0.02 µM, partner dose 1 µM)", "cell count": 108},
      {"smiles": "Cc1ccc(NC(=O)c2cccc(N(C)C)c2)cc1NC(=O)c1ccc(O)cc1", "note": "+ O=C(Oc1ccc([N+](=O)[O-])cc1)N1CCC(C(O)(c2ccc3c(c2)OCO3)c2ccc3c(c2)OCO3)CC1 [JZL184] (first compound 2 µM, partner dose 1 µM)", "cell count": 111},
      {"smiles": "Cn1sc(=O)n(Cc2ccccc2)c1=O", "note": "+ C[C@]12O[C@H](C[C@]1(O)CO)n1c3ccccc3c3c4c(c5c6ccccc6n2c5c31)CNC4=O [Lestaurtinib] (first compound 0.4 µM, partner dose 0.004 µM)", "cell count": 80.8},
      {"smiles": "Cc1cc(SCc2sc(-c3ccc(C(F)(F)F)c(F)c3)nc2C)ccc1OCC(=O)O", "note": "+ Oc1cc(-c2nc(-c3ccccc3)[nH]c2-c2ccncc2)ccc1Cl [L779450] (first compound 2 µM, partner dose 0.2 µM)", "cell count": 99.4},
      {"smiles": "O=S(=O)(c1ccccc1)N(CC(F)(F)F)c1ccc(C(O)(C(F)(F)F)C(F)(F)F)cc1", "note": "+ Cc1cc(SCc2sc(-c3ccc(C(F)(F)F)c(F)c3)nc2C)ccc1OCC(=O)O [GW0742] (first compound 1.4 µM, partner dose 2 µM)", "cell count": 106},
      {"smiles": "COC(=O)c1sccc1S(=O)(=O)Nc1ccc(Nc2ccccc2)cc1OC", "note": "+ C/C(O)=C(\\C#N)C(=O)Nc1cc(Br)ccc1Br [LFM-A13] (first compound 1 µM, partner dose 2 µM)", "cell count": 104},
      {"smiles": "Cc1ccc(Nc2nccc(N(C)c3ccc4c(C)n(C)nc4c3)n2)cc1S(N)(=O)=O", "note": "[Pazopanib] + N.N.[Cl][Pt][Cl] [cisplatin] (first compound 0.4 µM, partner dose 1.6 µM)", "cell count": 108},
      {"smiles": "COc1cc(Nc2ncc(F)c(Nc3ccc4c(n3)NC(=O)C(C)(C)O4)n2)cc(OC)c1OC", "note": "[Tamatinib] + O=C(Oc1ccc([N+](=O)[O-])cc1)N1CCC(C(O)(c2ccc3c(c2)OCO3)c2ccc3c(c2)OCO3)CC1 [JZL184] (first compound 0.4 µM, partner dose 1 µM)", "cell count": 63.2}
    ]},
    {"test_system": "COLO800", "assay": "cell count relative to DMSO control; melanoma cells; higher = more viable cells", "settings": "library dose: low library concentration; 72 h", "units": {"cell count": "%"}, "values": [
      {"smiles": "Cc1cc(N2CCOCC2)cc2[nH]c(-c3c(NC[C@@H](O)c4cccc(Cl)c4)cc[nH]c3=O)nc12", "note": "+ O=C(Oc1ccc([N+](=O)[O-])cc1)N1CCC(C(O)(c2ccc3c(c2)OCO3)c2ccc3c(c2)OCO3)CC1 [JZL184] (first compound 0.2 µM, partner dose 1 µM)", "cell count": 78.2},
      {"smiles": "COc1cc2c(Oc3ccc4[nH]c(C)cc4c3F)ncnc2cc1OCCCN1CCCC1", "note": "[cediranib] + O=C(Oc1ccc([N+](=O)[O-])cc1)N1CCC(C(O)(c2ccc3c(c2)OCO3)c2ccc3c(c2)OCO3)CC1 [JZL184] (first compound 0.4 µM, partner dose 1 µM)", "cell count": 91.3},
      {"smiles": "CCN(CC)CCNC(=O)c1c(C)[nH]c(/C=C2\\C(=O)Nc3ccc(F)cc32)c1C", "note": "[sunitinib] + C[As](C)SC[C@H](NC(=O)CC[C@H](N)C(=O)O)C(=O)NCC(=O)O [Darinaparsin] (first compound 0.4 µM, partner dose 0.4 µM)", "cell count": 63.4},
      {"smiles": "COc1ccc2c(c1)CCC1C2CCC2(C)C(NCCCCCCN3C(=O)C=CC3=O)CCC12", "note": "(configuration not stated) + C/C(O)=C(\\C#N)C(=O)Nc1cc(Br)ccc1Br [LFM-A13] (first compound 0.4 µM, partner dose 2 µM)", "cell count": 67.9},
      {"smiles": "COc1cc2c(Oc3ccc4[nH]c(C)cc4c3F)ncnc2cc1OCCCN1CCCC1", "note": "[cediranib] + Cc1cc(SCc2sc(-c3ccc(C(F)(F)F)c(F)c3)nc2C)ccc1OCC(=O)O [GW0742] (first compound 0.4 µM, partner dose 2 µM)", "cell count": 82.1},
      {"smiles": "Cn1cncc1[C@@](N)(c1ccc(Cl)cc1)c1ccc2c(c1)c(-c1cccc(Cl)c1)cc(=O)n2C", "note": "[tipifarnib] + Cc1cc(SCc2sc(-c3ccc(C(F)(F)F)c(F)c3)nc2C)ccc1OCC(=O)O [GW0742] (first compound 0.01 µM, partner dose 2 µM)", "cell count": 65.6},
      {"smiles": "O=C(Nc1ccccc1)c1cc([N+](=O)[O-])ccc1Cl", "note": "+ Cc1cc(SCc2sc(-c3ccc(C(F)(F)F)c(F)c3)nc2C)ccc1OCC(=O)O [GW0742] (first compound 2 µM, partner dose 2 µM)", "cell count": 133},
      {"smiles": "O=C(Oc1ccc([N+](=O)[O-])cc1)N1CCC(C(O)(c2ccc3c(c2)OCO3)c2ccc3c(c2)OCO3)CC1", "note": "+ O=c1cc(-c2cccc3c2Sc2ccccc2S3)oc(N2CCOCC2)c1 [KU55933] (first compound 1 µM, partner dose 1 µM)", "cell count": 120},
      {"smiles": "C[C@]1(c2nc3c(C(N)=O)cccc3[nH]2)CCCN1", "note": "[Veliparib] + C/C(O)=C(\\C#N)C(=O)Nc1cc(Br)ccc1Br [LFM-A13] (first compound 1.4 µM, partner dose 2 µM)", "cell count": 83.4},
      {"smiles": "O=C(Nc1ccccc1)c1cc([N+](=O)[O-])ccc1Cl", "note": "+ O=C(Oc1ccc([N+](=O)[O-])cc1)N1CCC(C(O)(c2ccc3c(c2)OCO3)c2ccc3c(c2)OCO3)CC1 [JZL184] (first compound 2 µM, partner dose 1 µM)", "cell count": 161},
      {"smiles": "CCc1ccc(CCOc2ccc(CC3SC(=O)NC3=O)cc2)nc1", "note": "(configuration not stated) [pioglitazone] + O=C(Oc1ccc([N+](=O)[O-])cc1)N1CCC(C(O)(c2ccc3c(c2)OCO3)c2ccc3c(c2)OCO3)CC1 [JZL184] (first compound 2 µM, partner dose 1 µM)", "cell count": 80.1},
      {"smiles": "O=C(Nc1cc(C(F)(F)F)cc(C(F)(F)F)c1)c1cc(Cl)ccc1O", "note": "+ Cn1cc(C2=C(c3cn(C4CCN(Cc5ccccn5)CC4)c4ccccc34)C(=O)NC2=O)c2ccccc21 [Enzastaurin] (first compound 0.016 µM, partner dose 0.8 µM)", "cell count": 119},
      {"smiles": "Cc1ccc(Nc2nccc(N(C)c3ccc4c(C)n(C)nc4c3)n2)cc1S(N)(=O)=O", "note": "[Pazopanib] + Cn1cc(C2=C(c3cn(C4CCN(Cc5ccccn5)CC4)c4ccccc34)C(=O)NC2=O)c2ccccc21 [Enzastaurin] (first compound 0.4 µM, partner dose 0.8 µM)", "cell count": 133},
      {"smiles": "O=C(Nc1cc(C(F)(F)F)cc(C(F)(F)F)c1)c1cc(Cl)ccc1O", "note": "+ N.N.[Cl][Pt][Cl] [cisplatin] (first compound 0.016 µM, partner dose 1.6 µM)", "cell count": 68.7},
      {"smiles": "O=C(Nc1cccc(Cl)c1)Nc1ncc(CCNc2ncnc3ccsc23)s1", "note": "+ O=C(Oc1ccc([N+](=O)[O-])cc1)N1CCC(C(O)(c2ccc3c(c2)OCO3)c2ccc3c(c2)OCO3)CC1 [JZL184] (first compound 0.0008 µM, partner dose 1 µM)", "cell count": 90.1},
      {"smiles": "N#Cc1c(O)c2c(-c3ccc(-c4ccccc4O)cc3)csc2[nH]c1=O", "note": "+ Cc1cc(SCc2sc(-c3ccc(C(F)(F)F)c(F)c3)nc2C)ccc1OCC(=O)O [GW0742] (first compound 2 µM, partner dose 2 µM)", "cell count": 79.7},
      {"smiles": "O=C(Nc1cccc(Cl)c1)Nc1ncc(CCNc2ncnc3ccsc23)s1", "note": "+ Cc1cc(SCc2sc(-c3ccc(C(F)(F)F)c(F)c3)nc2C)ccc1OCC(=O)O [GW0742] (first compound 0.0008 µM, partner dose 2 µM)", "cell count": 83.9},
      {"smiles": "O=C(Oc1ccc([N+](=O)[O-])cc1)N1CCC(C(O)(c2ccc3c(c2)OCO3)c2ccc3c(c2)OCO3)CC1", "note": "+ Cn1cc(/C=C2\\C(=O)Nc3cccnc32)c2ccccc21 [GW441756] (first compound 1 µM, partner dose 0.4 µM)", "cell count": 73.4},
      {"smiles": "Cn1cnc2c(F)c(Nc3ccc(Br)cc3Cl)c(C(=O)NOCCO)cc21", "note": "[selumetinib] + C[As](C)SC[C@H](NC(=O)CC[C@H](N)C(=O)O)C(=O)NCC(=O)O [Darinaparsin] (first compound 0.015 µM, partner dose 0.4 µM)", "cell count": 70.2},
      {"smiles": "CN(C)S(=O)(=O)c1ccc2c(c1)/C(=C/c1cc3c([nH]1)CCCC3)C(=O)N2", "note": "+ Cc1cc(SCc2sc(-c3ccc(C(F)(F)F)c(F)c3)nc2C)ccc1OCC(=O)O [GW0742] (first compound 0.4 µM, partner dose 2 µM)", "cell count": 87.2},
      {"smiles": "C/C(O)=C(\\C#N)C(=O)Nc1cc(Br)ccc1Br", "note": "+ CC(C)CCN1c2nc(Nc3cc(F)c(O)c(F)c3)ncc2N(C)C(=O)C1C [BID1870] (first compound 2 µM, partner dose 0.2 µM)", "cell count": 76.8},
      {"smiles": "Cc1cc(N2CCOCC2)cc2[nH]c(-c3c(NC[C@@H](O)c4cccc(Cl)c4)cc[nH]c3=O)nc12", "note": "+ C/C(O)=C(\\C#N)C(=O)Nc1cc(Br)ccc1Br [LFM-A13] (first compound 0.2 µM, partner dose 2 µM)", "cell count": 53.4},
      {"smiles": "CN(C)S(=O)(=O)c1ccc2c(c1)/C(=C/c1cc3c([nH]1)CCCC3)C(=O)N2", "note": "+ O=C(Oc1ccc([N+](=O)[O-])cc1)N1CCC(C(O)(c2ccc3c(c2)OCO3)c2ccc3c(c2)OCO3)CC1 [JZL184] (first compound 0.4 µM, partner dose 1 µM)", "cell count": 121}
    ]}
  ]
}
